# Reference: PubChem BioAssay AID504832 (National Center for Advancing Translational Sciences (NCATS), 2011)
# The whole screen tested about 310,000 compounds, of which about 18,000 (5.8%) were called active. Inconclusive means that the source gave no clear call. Such entries were picked first, then a sample of the others. Calls follow the shape of the dose curve; as a rule, active = well fitted inhibition curve with a large enough effect; inconclusive = small, poorly fitted or top-dose-only effect, or another doubt; inactive = no such curve, though single readings can be large or run the other way. No potency is given beside an inconclusive call; the fits are too rough.
# Test: Primary qHTS for delayed death inhibitors of the malarial parasite plastid, 48 hour incubation
# Conditions: P. falciparum luciferase growth in erythrocytes; series mostly up to 28.7 µM; activity change, negative = inhibition: at the top concentration
# Summary of the method: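 Parasite viability was followed by luminescence of a genomically integrated firefly luciferase. Cultures held 0.1% parasitemia at 2% hematocrit (final), incubated under 5% CO2 at 37 C.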
# % is scaled to controls: 0 for no effect and ±100 for the full control effect; potency is read from the fitted curve at half-maximal effect; tags tell the direction and shape of the fitted curve.
SMILES,"activity change, negative = inhibition",Potency
C=CCNC(=O)c1c(CS(=O)(=O)c2ccccc2)noc1C(=O)NCc1ccccc1,inactive: 18.9%,
COc1ccc(OC)c(S(=O)(=O)NCC(c2ccco2)N2CCc3ccccc32)c1 (stereo unspecified),,"inconclusive [inhibitor, full curve, poor fit]"
O=C(Nc1ccc(Cl)cc1Cl)c1ccc2c(c1)OCCO2,inactive: 358%,
c1cncc(-c2nnc3sc(C4CCCCC4)nn23)c1,,"inconclusive [inhibitor, single point]"
CC1CCCCC1NC(=O)/C(C#N)=C/c1ccc2c(c1)OCCO2 (stereo unspecified),,"inconclusive [inhibitor, partial curve, poor fit]"
COC(=O)/C=C1/SC(=Nc2ccc(Cl)c(Cl)c2)NC1=O,,"inconclusive [inhibitor, partial curve]"
CCNC(=S)N(CCc1ccccc1C)Cc1cc2cc(OC)c(OC)cc2[nH]c1=O,,"inconclusive [inhibitor, single point]"
CC1=NN(C(=O)CCc2ccc3c(c2)OCO3)C(O)(C(F)(F)F)C1 (stereo unspecified),inactive: 9.73%,
Cc1[nH]c2ccc(C(=O)NCCN3CCCCCC3)cc2c1C,,"inconclusive [inhibitor, single point]"
COc1cccc(OC)c1OCC(C)CNCC1CCCO1 (stereo unspecified),inactive: 6.11%,
CC(=O)c1c(C)[nH]c(C(=O)Nc2cccc3ccccc23)c1C,inactive: -24.7%,
COc1ccccc1NS(=O)(=O)c1ccc(C)c(NC(=O)c2ccc(S(=O)(=O)N3CCCCCC3)cc2)c1,,"inconclusive [inhibitor, single point]"
Cc1nc2ccc(NC(=O)/C=C/C(=O)O)cc2nc1C,inactive: -6.6%,
CCc1nccn1CCC(=O)NC1CC(C)(C)Cc2c1cnn2-c1cccc(F)c1 (stereo unspecified),inactive: 53.4%,
Cc1onc(-c2ccccc2Cl)c1C(=O)Nc1ccccc1C(=O)NC(C)C,,"inconclusive [inhibitor, partial curve]"
O=C(NCCc1ccccc1)/C(=C\c1ccccc1)NC(=O)c1ccco1,,"inconclusive [inhibitor, partial curve, poor fit]"
COC(=O)Cc1[nH]n(-c2nc3ccccc3s2)c(=O)c1C(C)=Nc1ccc(Cl)cc1,inactive: 150%,
CC(C)CSc1nc2ccccc2c(=O)[nH]1,,"inconclusive [inhibitor, single point]"
COC(=O)C(C(=O)OC)C(c1ccccc1)C(C(=O)c1ccccc1)[N+](=O)[O-] (stereo unspecified),inactive: -9.03%,
Cc1ccc(-n2nnnc2SCC(=O)NCC2CCCO2)cc1C (stereo unspecified),,"inconclusive [inhibitor, single point]"
Cc1ccc(C(C)n2cc(C(=O)NCc3ccccn3)nn2)cc1 (stereo unspecified),inactive: 13.3%,
CC(=O)N1N=C(c2ccc([N+](=O)[O-])cc2)CC1c1ccccc1Cl (stereo unspecified),,"inconclusive [inhibitor, partial curve, poor fit]"
COc1cc(CN(C)CC2CCCN(CCc3cccc(C(F)(F)F)c3)C2)ccc1O (stereo unspecified),,active: 2.94 µM
C=C1CCN([C@H](C(=O)OCc2cccc(C)c2)C(C)C)S(=O)(=O)c2ccccc21,,"inconclusive [inhibitor, single point]"

SMILES,"activity change, negative = inhibition",Potency
O=C(NCc1ccco1)c1ccc2nccnc2c1,inactive: 3.38%,
CCOc1ccc(OCC)c(Nc2cc(C)nc3nc(C)nn23)c1,,"inconclusive [inhibitor, single point]"
Cc1cc(/C=N/n2cnnc2)c(C)n1-c1ccc2c(c1)OCO2,inactive: 10.6%,
O=C(CSc1ncn(-c2ccccc2)n1)Nc1ccc2c(c1)OCCO2,inactive: 7.99%,
COc1ccc2cc(CCOC3CCCCO3)ncc2c1 (stereo unspecified),inactive: 130%,
C=CCn1c(SCC(=O)Nc2sccc2C(N)=O)nc2sc(CC)cc2c1=O,,"inconclusive [inhibitor, single point]"
CC(=O)Nc1ccc(NC(=S)NC(=O)C2CC2)cc1,,"inconclusive [inhibitor, partial curve, poor fit]"
NNC(=O)CNC(c1ccccc1)c1cc(Br)ccc1NC(=O)CCN1CCOCC1 (stereo unspecified),,active: 11.7 µM
CC(C)Cn1c(S(=O)(=O)O)nc2ccccc21,,"inconclusive [inhibitor, single point]"
CN(C)CCNc1cc(-c2ccncc2)nc2ccccc12,,active: 11.7 µM
COc1cc(C(=O)NNC(=O)c2ccccc2OCc2c(C)noc2C)cc(OC)c1OC,,"inconclusive [inhibitor, single point]"
O=C(O)CSCC(=O)N1CCN(S(=O)(=O)c2cc(Cl)cc(Cl)c2)CC1,inactive: -4.71%,
O=C(COC(=O)c1cc[n+]([O-])cc1)Nc1cccc(Cl)c1Cl,,active: 11.7 µM
COCCN1C(=O)/C(=C/c2ccc(OCc3ccc(C(=O)O)cc3)c(OC)c2)SC1=Nc1ccccc1,,active: 11.7 µM
CCO[C@H]1OC(C(=O)N2CCN(Cc3ccc4c(c3)OCO4)CC2)=C[C@@H](c2ccccc2)[C@@H]1CCCO,,"inconclusive [inhibitor, partial curve, poor fit]"
O=C(N/C(=C\c1ccc(Br)cc1)c1nc2ccccc2[nH]1)c1ccco1,,"inconclusive [inhibitor, single point]"
COc1ccc(CCNC(=O)CN(c2cc(C)cc(C)c2)S(=O)(=O)c2c(C)noc2C)cc1OC,,"inconclusive [inhibitor, partial curve]"
COc1ccc(CCN2CC(C(=O)NCc3nc4ccccc4n3C)CCC2=O)cc1 (stereo unspecified),,"inconclusive [inhibitor, partial curve]"
Cc1cc(NO)c(C(C)C)cc1N=O,inactive: -10.5%,
CCOC(=O)N1CCN(S(=O)(=O)c2ccc(C(=O)Nc3nnc(CC)o3)cc2)CC1,,"inconclusive [inhibitor, full curve, poor fit]"
O=c1cc(-c2cccc(F)c2)[nH]c2ccccc12,,"inconclusive [inhibitor, partial curve]"
COc1ccc(-c2csc3ncnc(N4CCN(S(=O)(=O)c5cccc(F)c5)CC4)c23)cc1,,"inconclusive [inhibitor, single point]"
Cc1ccc(-c2c(C(=O)N(C)Cc3ccccc3)oc(=O)c3ccccc23)cc1,,"inconclusive [inhibitor, single point]"
CCCOc1ccc(N2C(=O)CC(SCC(N)C(=O)OCC)C2=O)cc1 (stereo unspecified),,"inconclusive [inhibitor, full curve]"

SMILES,"activity change, negative = inhibition",Potency
CC(C)NS(=O)(=O)c1ccc(NC(=O)C(C)Oc2ccc(C(=O)c3ccccc3)cc2)cc1 (stereo unspecified),,"inconclusive [inhibitor, full curve, poor fit]"
CCN1CCN(Cc2nnc(-c3ccccc3)o2)CC1,inactive: 44.7%,
Cc1oc(C(C)(C)C)cc1C(=O)Nc1ccc2c(c1)OCCO2,inactive: 28.9%,
COc1cc2c(cc1OC)C(C)N(CC(=O)Nc1ccc(C)c(S(=O)(=O)N3CCOCC3)c1)CC2 (stereo unspecified),,"inconclusive [inhibitor, partial curve]"
Cc1ccc(NC(=O)c2cc(=O)[nH]c3ccc(S(=O)(=O)N4CCOCC4)cc23)cc1,,"inconclusive [inhibitor, single point]"
COc1ccccc1N1CCN(Cc2cc3c(cc2O)OCO3)CC1,,active: 14.7 µM
COc1ccc(C(=O)N[C@H](C(=O)NCc2cccs2)C(C)C)cc1,inactive: 91.4%,
CCOC(=O)C1CCN(c2c(N3CCCC(C(=O)OCC)C3)c(=O)c2=O)CC1 (stereo unspecified),,"inconclusive [inhibitor, partial curve, poor fit]"
c1coc(CNc2ncnc3nc[nH]c23)c1,inactive: -8.05%,
CC1CCCCN1CCCNC(=O)C1CCCN(c2ncnc3c2nc2n3CCCCC2)C1 (stereo unspecified),,"inconclusive [inhibitor, partial curve]"
Cc1ccc(C(=O)Cn2c(C(=O)/C=C/c3ccccc3)nc3ccccc32)cc1,,"inconclusive [inhibitor, partial curve, poor fit]"
C=CCn1c(=O)/c(=C/c2ccc(O)cc2)s/c1=C(/C#N)c1nnc2n1CCCCC2,,"inconclusive [inhibitor, single point]"
CCCCn1c(=O)n(CC(O)c2ccccc2)c(=O)c2c1ncn2C1CCCC1 (stereo unspecified),,active: 2.94 µM
Cc1ccc(CNC(=O)c2ccc3c(c2)NC(=O)CS3)cc1,inactive: 2.91%,
COc1ccc(NC(=O)C2CCCN(c3c4c(nc5ncnn35)CCC4)C2)cc1OC (stereo unspecified),inactive: -18.8%,
CCOc1ccccc1N(CC(=O)NCc1ccccc1)C(=O)CCC(=O)Nc1cc(C)ccn1,,"inconclusive [inhibitor, single point]"
Cc1ccnc(N(C(=O)c2cccs2)C(=O)c2cccs2)c1,inactive: 168%,
Cc1ccc(C(=O)OCC(=O)NC2CCCC(C)C2C)cc1S(=O)(=O)N1CCCCC1 (stereo unspecified),,"inconclusive [inhibitor, single point]"
CC1=C(C(=O)OCC2CCCO2)C(c2coc3ccc(Cl)cc3c2=O)C2=C(CCCC2=O)N1 (stereo unspecified),,"inconclusive [inhibitor, single point]"
O=C(c1cc(-c2cccnc2)nc2ccccc12)N1CCCc2ccccc21,,"inconclusive [inhibitor, single point]"
COc1ccc(CCNC(=O)c2ccc3c(c2)S(=O)(=O)N=C2CCCCCN23)cc1,,"inconclusive [inhibitor, single point]"
COc1ccc(S(=O)(=O)N2CCOCC2)cc1NC(=O)c1ccc(OCC(C)C)c(OC)c1,,active: 9.28 µM
Cc1ccc2cc3cc(C(=O)NCCCN4CCc5ccccc5C4)oc3nc2c1,,active: 8.28 µM
